# The supplement of paper PMC10037445
# Values joined by “and” are separate entries in the source; they are usually repeats but may differ in a detail not shown here. Equal entries are not always repeated. Over roughly 2,900 compounds, “NF-kB SEAP reporter activity, fold change vs agonist alone” has its median near 0.99; the highest 2% begin near 2.6. The list shows a part of the results.
# Columns and labels:
# RAW-Dual [1] = assay: NF-kB SEAP reporter activity, fold change vs agonist alone; cytotoxicity flag (confluency mask): not cytotoxic; higher = enhanced NF-kB activity
# Outline: (§1)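 Cytotoxic wells were those whose IncuCyte confluency was below 70% of agonist controls in both mask sets. The cells were RAW-Dual macrophages at 50,000 cells/well in DMEM on 384-well plates, dosed with 50 nL of library stock by pin tool, stimulated with a PRR agonist 1 h later, and kept at 37 °C, 5% CO2 for 20 hours. IRF and NF-κB reporter activity, as fold change over agonist-alone wells, came from supernatant read by QuantiLuc luminescence and QuantiBlue absorbance, respectively.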
# RAW-Dual [2] = assay: NF-kB SEAP reporter activity, fold change vs agonist alone; higher = enhanced NF-kB activity; conditions: library stock concentration (final ~1000-fold dilution): 10 mM
# Outline: as §1
# RAW-Dual [3] = assay: NF-kB SEAP reporter activity, fold change vs agonist alone; cytotoxicity flag (confluency mask): cytotoxic (confluency <70% of control); higher = enhanced NF-kB activity
# Outline: as §1
# [4] = agonist: ODN 1826 (TLR9) 0.5 ug/mL
# [5] = agonist: Pam2CSK4 (TLR2/6) 0.1 ug/mL
# [6] = agonist: Pam3CSK4 (TLR2/1) 0.1 ug/mL
# [7] = cytotoxicity flag (confluency mask): not cytotoxic, agonist: Imiquimod (TLR7) […]
# [8] = cytotoxicity flag (confluency mask): not cytotoxic, agonist: MPLA (TLR4) […]
smiles,measurement,setting,value
CC(C)=CCC[C@](C)(O)[C@H]1CC[C@]2(C)[C@@H]3CCC4C(C)(C)[C@@H](O)CC[C@]4(C)[C@H]3C[C@@H](O)[C@@]12C (some centres undefined) (library stock concentration (final ~1000-fold dilution): 10 mM),NF-kB SEAP reporter activity,RAW-Dual [1]; agonist: LPS (TLR4) 0.1 ug/mL,1.41
same,NF-kB SEAP reporter activity,RAW-Dual [1]; [4],0.693
same,NF-kB SEAP reporter activity,RAW-Dual [1]; [5],0.848
same,NF-kB SEAP reporter activity,RAW-Dual [1]; [6],0.882
CC(C)=CCC[C@](C)(O)[C@H]1CC[C@]2(C)[C@@H]3CCC4C(C)(C)[C@@H](O)CC[C@]4(C)[C@H]3C[C@@H](O)[C@@]12C (some centres undefined),NF-kB SEAP reporter activity,RAW-Dual [2]; [7],0.934
same,NF-kB SEAP reporter activity,RAW-Dual [2]; [8],1.14
N#Cc1c(Oc2ccc(F)c(NC(=O)Cc3cccc(C(F)(F)F)c3)c2)ccc2nc(NC(=O)C3CC3)sc12,NF-kB SEAP reporter activity,RAW-Dual [2]; [7],1.02
same,NF-kB SEAP reporter activity,RAW-Dual [2]; [8],1.05
N#Cc1c(Oc2ccc(F)c(NC(=O)Cc3cccc(C(F)(F)F)c3)c2)ccc2nc(NC(=O)C3CC3)sc12 (library stock concentration (final ~1000-fold dilution): 10 mM),NF-kB SEAP reporter activity,RAW-Dual [1]; agonist: LPS (TLR4) 0.1 ug/mL,1.25
same,NF-kB SEAP reporter activity,RAW-Dual [1]; [4],0.983
same,NF-kB SEAP reporter activity,RAW-Dual [1]; [5],0.354
same,NF-kB SEAP reporter activity,RAW-Dual [1]; [6],0.396
COC(=O)C1=COC(OC2OC(CO)C(O)C(O)C2O)C2C1CC(O)C2C (centres undefined) (library stock concentration (final ~1000-fold dilution): 10 mM),NF-kB SEAP reporter activity,RAW-Dual [1]; agonist: LPS (TLR4) 0.1 ug/mL,1
same,NF-kB SEAP reporter activity,RAW-Dual [1]; [4],0.942
same,NF-kB SEAP reporter activity,RAW-Dual [1]; [5],1.13
same,NF-kB SEAP reporter activity,RAW-Dual [1]; [6],1.04
COC(=O)C1=COC(OC2OC(CO)C(O)C(O)C2O)C2C1CC(O)C2C (centres undefined),NF-kB SEAP reporter activity,RAW-Dual [2]; [7],0.93
same,NF-kB SEAP reporter activity,RAW-Dual [2]; [8],1.05
Cl.OC(CCN1CCCC1)(c1ccccc1)C1CCCCC1 (centres undefined),NF-kB SEAP reporter activity,RAW-Dual [2]; [7],0.978
same,NF-kB SEAP reporter activity,RAW-Dual [2]; [8],1.11
Cl.OC(CCN1CCCC1)(c1ccccc1)C1CCCCC1 (centres undefined) (library stock concentration (final ~1000-fold dilution): 10 mM),NF-kB SEAP reporter activity,RAW-Dual [1]; agonist: LPS (TLR4) 0.1 ug/mL,1.32
same,NF-kB SEAP reporter activity,RAW-Dual [1]; [4],0.717
same,NF-kB SEAP reporter activity,RAW-Dual [1]; [5],1.17
same,NF-kB SEAP reporter activity,RAW-Dual [1]; [6],1.09
Cc1ccc(C(=O)Nc2cccc(C(F)(F)F)c2)cc1Nc1nc(-c2cccnc2)nc2c1cnn2C,NF-kB SEAP reporter activity,RAW-Dual [2]; [7],0.64
same,NF-kB SEAP reporter activity,RAW-Dual [2]; [8],0.662
Cc1ccc(C(=O)Nc2cccc(C(F)(F)F)c2)cc1Nc1nc(-c2cccnc2)nc2c1cnn2C (library stock concentration (final ~1000-fold dilution): 10 mM),NF-kB SEAP reporter activity,RAW-Dual [1]; agonist: LPS (TLR4) 0.1 ug/mL,2.31
same,NF-kB SEAP reporter activity,RAW-Dual [1]; [4],0.77
same,NF-kB SEAP reporter activity,RAW-Dual [1]; [5],1.22
same,NF-kB SEAP reporter activity,RAW-Dual [1]; [6],0.662
Cc1noc(-c2ccc(CSCCC(=O)O)cc2)c1NC(=O)OC(C)c1ccccc1Cl (centres undefined) (library stock concentration (final ~1000-fold dilution): 10 mM),NF-kB SEAP reporter activity,RAW-Dual [1]; agonist: LPS (TLR4) 0.1 ug/mL,1.39
same,NF-kB SEAP reporter activity,RAW-Dual [1]; [4],1.2
same,NF-kB SEAP reporter activity,RAW-Dual [1]; [5],0.943
same,NF-kB SEAP reporter activity,RAW-Dual [1]; [6],1.07
Cc1noc(-c2ccc(CSCCC(=O)O)cc2)c1NC(=O)OC(C)c1ccccc1Cl (centres undefined),NF-kB SEAP reporter activity,RAW-Dual [2]; [7],0.773
same,NF-kB SEAP reporter activity,RAW-Dual [2]; [8],0.731
COc1ccc(-c2cc(=O)c3c(OC)c(OC)c(OC)c(OC)c3o2)cc1OC (library stock concentration (final ~1000-fold dilution): 10 mM),NF-kB SEAP reporter activity,RAW-Dual [1]; agonist: LPS (TLR4) 0.1 ug/mL,1.19 and 1.42
same,NF-kB SEAP reporter activity,RAW-Dual [1]; [4],0.846 and 0.84
same,NF-kB SEAP reporter activity,RAW-Dual [1]; [5],0.934 and 0.9
same,NF-kB SEAP reporter activity,RAW-Dual [1]; [6],1.2 and 1.24
COc1ccc(CNCc2cccc3ccccc23)cc1.Cl (library stock concentration (final ~1000-fold dilution): 10 mM),NF-kB SEAP reporter activity,RAW-Dual [1]; agonist: LPS (TLR4) 0.1 ug/mL,1.45
same,NF-kB SEAP reporter activity,RAW-Dual [1]; [4],0.82
same,NF-kB SEAP reporter activity,RAW-Dual [1]; [5],1.04
same,NF-kB SEAP reporter activity,RAW-Dual [1]; [6],1.06
COc1ccc(CNCc2cccc3ccccc23)cc1.Cl,NF-kB SEAP reporter activity,RAW-Dual [2]; [7],1.34
same,NF-kB SEAP reporter activity,RAW-Dual [2]; [8],1.44
C=C1C(CO)C(O)CC1n1cnc2c(=O)nc(N)[nH]c21.O (centres undefined),NF-kB SEAP reporter activity,RAW-Dual [2]; [7],1.01
same,NF-kB SEAP reporter activity,RAW-Dual [2]; [8],1.01
C=C1C(CO)C(O)CC1n1cnc2c(=O)nc(N)[nH]c21.O (centres undefined) (library stock concentration (final ~1000-fold dilution): 10 mM),NF-kB SEAP reporter activity,RAW-Dual [1]; agonist: LPS (TLR4) 0.1 ug/mL,1.3
same,NF-kB SEAP reporter activity,RAW-Dual [1]; [4],1.03
same,NF-kB SEAP reporter activity,RAW-Dual [1]; [5],1.11
same,NF-kB SEAP reporter activity,RAW-Dual [1]; [6],1.2
CNC(=O)c1cccc(-c2ccc3c(N4CCOCC4C)nc(N4CCOCC4C)nc3n2)c1 (centres undefined),NF-kB SEAP reporter activity,RAW-Dual [2]; [7],1.13
same,NF-kB SEAP reporter activity,RAW-Dual [2]; [8],1.22
CNC(=O)c1cccc(-c2ccc3c(N4CCOCC4C)nc(N4CCOCC4C)nc3n2)c1 (centres undefined) (library stock concentration (final ~1000-fold dilution): 10 mM),NF-kB SEAP reporter activity,RAW-Dual [1]; agonist: LPS (TLR4) 0.1 ug/mL,1.11
same,NF-kB SEAP reporter activity,RAW-Dual [1]; [4],0.489
same,NF-kB SEAP reporter activity,RAW-Dual [1]; [5],0.376
same,NF-kB SEAP reporter activity,RAW-Dual [1]; [6],0.57
Cl.OC1C=C2CCN3Cc4cc5c(cc4C(C1O)C23)OCO5 (centres undefined) (library stock concentration (final ~1000-fold dilution): 10 mM),NF-kB SEAP reporter activity,RAW-Dual [1]; agonist: LPS (TLR4) 0.1 ug/mL,1.62
same,NF-kB SEAP reporter activity,RAW-Dual [1]; [4],1.13
same,NF-kB SEAP reporter activity,RAW-Dual [1]; [5],0.634
same,NF-kB SEAP reporter activity,RAW-Dual [1]; [6],0.859
Cl.OC1C=C2CCN3Cc4cc5c(cc4C(C1O)C23)OCO5 (centres undefined),NF-kB SEAP reporter activity,RAW-Dual [2]; [7],2.19
same,NF-kB SEAP reporter activity,RAW-Dual [2]; [8],1.63
Cc1ccc(S(=O)(=O)OCC(=O)Nc2ccc(C(=O)O)c(O)c2)cc1,NF-kB SEAP reporter activity,RAW-Dual [2]; [7],0.942
same,NF-kB SEAP reporter activity,RAW-Dual [2]; [8],1.02
Cc1ccc(S(=O)(=O)OCC(=O)Nc2ccc(C(=O)O)c(O)c2)cc1 (library stock concentration (final ~1000-fold dilution): 10 mM),NF-kB SEAP reporter activity,RAW-Dual [1]; agonist: LPS (TLR4) 0.1 ug/mL,1.22
same,NF-kB SEAP reporter activity,RAW-Dual [1]; [4],1.01
same,NF-kB SEAP reporter activity,RAW-Dual [1]; [5],0.939
same,NF-kB SEAP reporter activity,RAW-Dual [1]; [6],1.08
O=C(CCc1ccc(O)cc1)c1c(O)cc(OC2OC(CO)C(O)C(O)C2O)cc1O (centres undefined) (library stock concentration (final ~1000-fold dilution): 10 mM),NF-kB SEAP reporter activity,RAW-Dual [1]; agonist: LPS (TLR4) 0.1 ug/mL,1.34
same,NF-kB SEAP reporter activity,RAW-Dual [1]; [4],1.06
same,NF-kB SEAP reporter activity,RAW-Dual [1]; [5],1.11
same,NF-kB SEAP reporter activity,RAW-Dual [1]; [6],1.32
O=C(CCc1ccc(O)cc1)c1c(O)cc(OC2OC(CO)C(O)C(O)C2O)cc1O (centres undefined),NF-kB SEAP reporter activity,RAW-Dual [2]; [7],1.05
same,NF-kB SEAP reporter activity,RAW-Dual [2]; [8],1.06
Cc1nnc(NC(=O)c2nc(S(=O)(=O)Cc3ccc(F)cc3)ncc2Cl)s1,NF-kB SEAP reporter activity,RAW-Dual [2]; [7],1.23
same,NF-kB SEAP reporter activity,RAW-Dual [2]; [8],0.951
Cc1nnc(NC(=O)c2nc(S(=O)(=O)Cc3ccc(F)cc3)ncc2Cl)s1 (library stock concentration (final ~1000-fold dilution): 10 mM),NF-kB SEAP reporter activity,RAW-Dual [1]; agonist: LPS (TLR4) 0.1 ug/mL,0.583
same,NF-kB SEAP reporter activity,RAW-Dual [1]; [4],0.952
same,NF-kB SEAP reporter activity,RAW-Dual [1]; [5],0.681
same,NF-kB SEAP reporter activity,RAW-Dual [1]; [6],0.568
Cc1cc(N2CCN(C3CNC(C(=O)N4CCSC4)C3)CC2)n(-c2ccccc2)n1 (centres undefined),NF-kB SEAP reporter activity,RAW-Dual [2]; [8],0.979
Cc1cc(N2CCN(C3CNC(C(=O)N4CCSC4)C3)CC2)n(-c2ccccc2)n1 (centres undefined) (library stock concentration (final ~1000-fold dilution): 10 mM),NF-kB SEAP reporter activity,RAW-Dual [1]; agonist: LPS (TLR4) 0.1 ug/mL,0.83
same,NF-kB SEAP reporter activity,RAW-Dual [1]; [4],1.06
same,NF-kB SEAP reporter activity,RAW-Dual [1]; [5],0.973
same,NF-kB SEAP reporter activity,RAW-Dual [1]; [6],1.12
CC1(C)C=C(CN2C/C(=C\c3ccc(F)cc3)C(=O)/C(=C/c3ccc(F)cc3)C2)C(C)(C)N1O (library stock concentration (final ~1000-fold dilution): 10 mM),NF-kB SEAP reporter activity,RAW-Dual [1]; agonist: LPS (TLR4) 0.1 ug/mL,0.893
same,NF-kB SEAP reporter activity,RAW-Dual [1]; [4],1.22
same,NF-kB SEAP reporter activity,RAW-Dual [1]; [5],0.842
same,NF-kB SEAP reporter activity,RAW-Dual [1]; [6],0.609
CC1(C)C=C(CN2C/C(=C\c3ccc(F)cc3)C(=O)/C(=C/c3ccc(F)cc3)C2)C(C)(C)N1O,NF-kB SEAP reporter activity,RAW-Dual [2]; [7],1.22
same,NF-kB SEAP reporter activity,RAW-Dual [2]; [8],1.3
COc1ccc(-c2oc3c(CC=C(C)C)c(O)cc(O)c3c(=O)c2OC2OC(C)C(O)C(O)C2O)cc1 (centres undefined) (library stock concentration (final ~1000-fold dilution): 10 mM),NF-kB SEAP reporter activity,RAW-Dual [3]; agonist: LPS (TLR4) 0.1 ug/mL,2.22
same,NF-kB SEAP reporter activity,RAW-Dual [3]; [4],0.553
same,NF-kB SEAP reporter activity,RAW-Dual [3]; [5],0.251
same,NF-kB SEAP reporter activity,RAW-Dual [3]; [6],0.457
COc1ccc(-c2oc3c(CC=C(C)C)c(O)cc(O)c3c(=O)c2OC2OC(C)C(O)C(O)C2O)cc1 (centres undefined),NF-kB SEAP reporter activity,"RAW-Dual [2]; cytotoxicity flag (confluency mask): cytotoxic (confluency <70% of control), agonist: Imiquimod (TLR7) […]",1.82
same,NF-kB SEAP reporter activity,"RAW-Dual [2]; cytotoxicity flag (confluency mask): cytotoxic (confluency <70% of control), agonist: MPLA (TLR4) […]",1.45
